From the supplement of paper PMC8728848
The other results are listed elsewhere or left out.

Columns and labels:
Test in all cases: glycan array binding signal (z-score within array); higher = stronger binding
Settings in all cases: glycan notation: IUPAC condensed, linker removed
[1] = molecular target: Gal(a1-3)Gal(b1-4)GlcNAc
Summary of the method: (§1)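 The Consortium for Functional Glycomics database supplied 3228 glycan arrays, of which those lacking an available protein sequence were dropped. The binding signal, a within-array Z-score, was averaged across arrays of the same protein sequence and across linkers. Negative scores can be read as non-binding.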

[2] = molecular target: Gal(a1-3)Gal(b1-4)GlcNAc(b1-2)Man
Summary of the method: as §1

[3] = molecular target: Gal(a1-3)Gal(b1-4)GlcNAc(b1-2)Man(a1-3)[Gal(a1-3)Gal(b1-4)GlcNAc(b1-2)Man(a1-6)]Man(b1-4)GlcNAc(b1-4)GlcNAc
Summary of the method: as §1

[4] = molecular target: Gal(a1-3)Gal(b1-4)GlcNAc(b1-3)GalNAc
Summary of the method: as §1

[5] = molecular target: Gal(a1-3)Gal(b1-4)GlcNAc(b1-6)GalNAc
Summary of the method: as §1

[6] = molecular target: Gal(a1-3)Gal(b1-4)[Fuc(a1-3)]GlcNAc
Summary of the method: as §1

[7] = molecular target: Gal(a1-3)Gal(b1-4)[Fuc(a1-3)]GlcNAc(b1-2)Man(a1-3)[Gal(a1-3)Gal(b1-4)[Fuc(a1-3)]GlcNAc(b1-2)Man(a1-6)]Man(b1-4)GlcNAc(b1-4)GlcNAc
Summary of the method: as §1

[8] = molecular target: Gal(a1-3)GalNAc
Summary of the method: as §1

[9] = molecular target: Gal(a1-3)[Gal(a1-4)]Gal(b1-4)GlcNAc
Summary of the method: as §1

[10] = molecular target: Gal(a1-4)Gal(b1-3)GlcNAc(b1-2)Man(a1-3)[Gal(a1-4)Gal(b1-3)GlcNAc(b1-2)Man(a1-6)]Man(b1-4)GlcNAc(b1-4)GlcNAc
Summary of the method: as §1

[11] = molecular target: Gal(a1-4)Gal(b1-4)Glc
Summary of the method: as §1

[12] = molecular target: Gal(a1-4)Gal(b1-4)GlcNAc
Summary of the method: as §1

[13] = molecular target: Gal(a1-4)Gal(b1-4)GlcNAc(b1-2)Man(a1-3)[Gal(a1-4)Gal(b1-4)GlcNAc(b1-2)Man(a1-6)]Man(b1-4)GlcNAc(b1-4)GlcNAc
Summary of the method: as §1

[14] = molecular target: Gal(a1-4)Gal(b1-4)GlcNAc(b1-3)Gal(b1-4)Glc
Summary of the method: as §1

[15] = molecular target: Gal(a1-4)GlcNAc
Summary of the method: as §1

[16] = molecular target: Gal(a1-6)Glc
Summary of the method: as §1

[17] = molecular target: Gal(b1-2)Gal
Summary of the method: as §1

[18] = molecular target: Gal(b1-3)Gal
Summary of the method: as §1

[19] = molecular target: Gal(b1-3)Gal(b1-4)GlcNAc
Summary of the method: as §1

[20] = molecular target: Gal(b1-3)GalNAc
Summary of the method: as §1

[21] = molecular target: Gal(b1-3)GalNAc(a1-3)[Fuc(a1-2)]Gal(b1-4)Glc
Summary of the method: as §1

[22] = molecular target: Gal(b1-3)GalNAc(a1-3)[Fuc(a1-2)]Gal(b1-4)GlcNAc
Summary of the method: as §1

[23] = molecular target: Gal(b1-3)GalNAc(b1-3)Gal
Summary of the method: as §1

[24] = molecular target: Gal(b1-3)GalNAc(b1-3)Gal(a1-4)Gal(b1-4)Glc
Summary of the method: as §1

[25] = molecular target: Gal(b1-3)GalNAc(b1-4)Gal(b1-4)Glc
Summary of the method: as §1

[26] = molecular target: Gal(b1-3)GalNAc(b1-4)[Neu5Ac(a2-3)]Gal(b1-4)Glc
Summary of the method: as §1

[27] = molecular target: Gal(b1-3)GlcNAc
Summary of the method: as §1

[28] = molecular target: Gal(b1-3)GlcNAc(a1-3)Gal(b1-4)GlcNAc
Summary of the method: as §1

[29] = molecular target: Gal(b1-3)GlcNAc(a1-6)Gal(b1-4)GlcNAc
Summary of the method: as §1

[30] = molecular target: Gal(b1-3)GlcNAc(b1-2)Man
Summary of the method: as §1

B1: a L Fucosidase (Streptosporangium roseum), D2B1P1_STRRD (protein)
chain: MRRKLLLVPAVGLLVIGSIFATQPVASADTPPVYEPTVESLNSHPVPQWFNDDKFGIFIHWGAYSVPAWGPRGSYAEWYGNYMNAGGSATNAHHKATYGQDFNYDAFLQQWKAEKFDPADWVKLFKDAGAKYFVLTSKHHEGMALWDSKSSGRDSVDLGPGRDLAKELFDAARKDEAKLKAGFYYSLYEWYNPAYTGRPATNPYTGAEIPYTGAPGGGDYVKDYMLPQMRELIDGYDPDIIWCDGQWEKPASYWNTAGVIADYYNKALNSGKEVAVANRCKIQSGNLDSPELDFQTPEYTVKPDIDPVKWESSRGIAHSYGYNQNEPEEDHLTSDQLVDSLVDIVSKNGNLLLDIGPKADGTIPEIQRQRLLDIGAWLKANGEAIYGTTYWNRAEEKGGPDDVRYTAKDATLYATALKWPGEQLTLGADLPVDHSTRITMLGSGARLSWSRDEQGRVVVNTPQEAGKHAYVFKIETPGVRSLLRTSSSLAKEIAPGRTISGELTVTNPGKRHTPATKLSLTVPQGWTATLGAPRVRPLGPGESVKVPISVSAPEGVAPAPYTLGLYQRTGRMGTTTALPLTVNRPNLSLGKPATQKSTGYDAPASRAVDGNTGGDWSAGSTTHTAEPEKQAWWQVDLGASARLDSVDVWNRLDCCADRLKDFWVMASDQPFTTDDLDQARTAPGVTAVHVGEQAGSPSKVKLPEGTRGRYVRIQLASPSNPLSLAEVQVRGSMARPNLSLGKPATQKSTGYDAPASRAVDGNTGGDWSAGSTTHTAEPEKQAWWQVDLGASARLDSVDVWNRLDCCADRLKDFWVMASDQPFTTDDLDQARTAPGVTAVHVGEQAGSPSKVKLPEGTRGRYVRIQLASPSNPLSLAEVQVRLEHHHHHHS
- glycan array binding signal (z-score) [1]: -0.528
- glycan array binding signal (z-score) [2]: 0.657
- glycan array binding signal (z-score) [3]: -0.238
- glycan array binding signal (z-score) [4]: 0.059
- glycan array binding signal (z-score) [5]: 0.325
- glycan array binding signal (z-score) [6]: -0.582
- glycan array binding signal (z-score) [7]: -0.18
- glycan array binding signal (z-score) [8]: -0.534
- glycan array binding signal (z-score) [9]: -0.569
- glycan array binding signal (z-score) [10]: 0.753
- glycan array binding signal (z-score) [11]: -0.381
- glycan array binding signal (z-score) [12]: -0.527
- glycan array binding signal (z-score) [13]: -0.128
- glycan array binding signal (z-score) [14]: -0.276
- glycan array binding signal (z-score) [15]: -0.412
- glycan array binding signal (z-score) [16]: -0.266
- glycan array binding signal (z-score) [17]: -0.033
- glycan array binding signal (z-score) [18]: -0.424
- glycan array binding signal (z-score) [19]: -0.542
- glycan array binding signal (z-score) [20]: -0.32
- glycan array binding signal (z-score) [21]: 0.138
- glycan array binding signal (z-score) [22]: 0.097
- glycan array binding signal (z-score) [23]: -0.526
- glycan array binding signal (z-score) [24]: -0.265
- glycan array binding signal (z-score) [25]: -0.382
- glycan array binding signal (z-score) [26]: -0.462
- glycan array binding signal (z-score) [27]: -0.427
- glycan array binding signal (z-score) [28]: -0.506
- glycan array binding signal (z-score) [29]: -0.507
- glycan array binding signal (z-score) [30]: 0.534
